Measured values taken from the supplement of paper PMC11417369.
± gives the standard deviation of the averaged measurements. The list shows a part of the results.

Test system: PfAP2-G AP2 domain (GST-tagged)
Experiment: gcPBM binding intensity (ln(normalized median fluorescence intensity)); higher = stronger DNA binding
Method in brief: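 Binding of GST-tagged P. falciparum DNA-binding domains, expressed in E. coli and used at about 25 μg on average, was carried out for 1 h in 1× PBS containing 1% milk, 0.2 mg/ml BSA, 0.5% salmon testes DNA and 0.03% Triton X-100. The target was an Agilent 4 × 180k array of primer-extended double-stranded 36-bp intergenic genomic probes plus negative controls, read with Alexa488 anti-GST antibody at 488 nm. Binding intensity is the highest Masliner-normalised natural-log median intensity across replicate spots of either probe orientation.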

Row | Sequence | gcPBM binding intensity (ln)
1 | TAAATTAAAAAAAAAAACAAAAAAAAAGCAACAAAA [CACACA_negctrl_site1318] | 9.84 ± 0.12
2 | ATTTATTTCAATAAACTTCTTTTCTTTAACAATTAC [CACACA_negctrl_site1222] | 9.845 ± 0.035
3 | CTGTAAAATGTGATGGTGCATATTAATTTAGTTGTA | 10.07 ± 0.042
4 | AAATTAAAATATATATGTACATATATATATATATAT [XGTACX_site7844] | 11.2 ± 0.54
5 | GAGCTTTGGATGAAAGCATGCGATGAATGGATAAAA [TGCATGCA_site786] | 9.94 ± 0.028
6 | AGAAACGTAAGTTATACACACATGTCAAAAGAAAAA [CACACA_site312] | 9.985 ± 0.092
7 | TATAAAAATGTGTATGTACACACTTTATTTTTAATA [CACACA_site2532] | 11.4 ± 0.84
8 | AGTATTTCCATATGTACATGCAAAAGGAAAGATATA [TGCATGCA_site850] | 11.1 ± 0.62
9 | TATTTTTCCCTATGCACACACACCGTATATATAATA [CACACA_site4758] | 10.3 ± 0.21
10 | AAATATAAAAATAGCACACATATATACATATATATA [CACACA_site56] | 9.84 ± 0.11
11 | TGTCCAATTTTTTATCGTACATAATATATAAATAAA [XGTACX_site1705] | 11.3 ± 0.69
12 | TTGTTAATATATATATGTACTTATTTATTTATTTAT [XGTACX_site2274] | 11.4 ± 0.93
13 | ATCCATCTTTTATATAGTACTTTATAATATATATAT [XGTACX_site8064] | 10.9 ± 0.44
14 | CAATGTTAATATAATACACACAATATGTATTTGTCT [CACACA_site1162] | 9.94 ± 0.099
15 | GAAAAAAAAAAAAAAAGTACATGTCATAAATTGTAT [XGTACX_site1461] | 11.5 ± 1.1
16 | TTTTCCTTAACACACGTTTATATAAAAAATTAAAAT [XGTACX_negctrl_site115] | 10 ± 0.33
17 | TTTGAATTTTTTAACACACACATGTCTGGATATATA [CACACA_site1645] | 10.1 ± 0.28
18 | TTATAGTATTTATAATGTACAAATATATTTTATTTT [XGTACX_site5015] | 10.6 ± 0.42
19 | ATATTTATATTTTTTTGTACATATATAATTTTATAA [XGTACX_site4151] | 10.9 ± 0.44
20 | ATATATATTTATATATGTACATATTAATATATATAT [XGTACX_site1144] | 11.2 ± 0.8
21 | ATATATATATTTATAGTGCATTTATATTAAAATATC [GTGCAC_site9818] | 9.88 ± 0.38
22 | TCAAATAGAAAATAAAGTACTTAATTTTTAGGAACA [XGTACX_site1446] | 11.3 ± 0.85
23 | TTGAATATTTAAAAACGTACATAAAATTATTTGATT [XGTACX_site5422] | 11.3 ± 0.81
24 | ATAAAAAAATCAGACACACACACGTAAACCCATACA [CACACA_site2773] | 10.4 ± 0.28
25 | ACATATTTATATATGTGTACATAAATATTCTTTTAA [XGTACX_site8238] | 11.4 ± 1
